Experimental data reported in PMC6149971, “In Vivo and In Vitro Activities and ADME-Tox Profile of a Quinolizidine-Modified 4-Aminoquinoline: A Potent Anti-P. falciparum and Anti-P. vivax Blood-Stage Antimalarial” (Molecules : A Journal of Synthetic Chemistry and Natural …, 2017).

What was measured:
[1] = Maximum tolerated dose in CD1 mice; conditions: CD1, mouse, in vivo, ip
P. falciparum W-2 (CQ-R) = assay: Combination with dihydroartemisinin (isobologram), W-2; format: cell-based; conditions: additive activity
Procedure: Figure 2 Isobologram analysis of the antimalarial activity of (−)-AM1 in combination with dihydroartemisinin (DHA) against D10 chloroquine-sensitive (CQ-S) (A) or W2 chloroquine-resistant (CQ-R) (B) P. falciparum strains. […]. DHA fractional IC50 values were calculated by dividing the IC50 of DHA combined with (−)-AM1 or CQ, respectively, by the IC50 of DHA alone, and plotted on the horizontal axis. The corresponding fractional (−)-AM1 or CQ IC50 values were calculated by dividing each fixed concentration by the IC50 of the (−)-AM1 or CQ alone, and plotted on the vertical axis. An isobologram close to the diagonal indicates an additive effect.
The antimalarial activity of (−)-AM1 was assayed in combination with dihydroartemisinin (DHA) against W-2 (CQ-R) or D10 (CQ-S) strains of P. falciparum by potentiation tests as previously described. CQ was used as a control. Isobolograms were constructed by plotting a pair of fractional IC50 values for each combination of (−)-AM1 or CQ with DHA [40].
An isobologram close to the diagonal indicates an additive effect.

With `Clc1ccc2c(NC[C@@H]3CCCN4CCCC[C@H]34)ccnc2c1` [(−)-AM1, 7-chloro-N-(((1S,9aR)-octahydro-1H-quinolizin-1-yl)methyl)quinolin-4-amine] the MTD [1] was over 100 mg/kg and the “FIC in combination with DHA” value (P. falciparum W-2 (CQ-R)) was under 2.
